Test results reported in PMC4336329 (PLoS ONE, 2015).
Out of some 310,000 compounds screened, about 14,000 (4.5%) showed an effect of 50% or more. Effects have a minus sign here. This is one part of the list.

biological target: human ether-à-go-go-related gene (hERG) potassium channel (human, UniProt Q12809); experiment: primary screen, population patch clamp on CHO cells stably expressing hERG
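Further: peak tail current of the secondary pulse compared with the same well before compound.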

Sequence of human ether-à-go-go-related gene (hERG) potassium channel (Q12809 whole entry, looked up): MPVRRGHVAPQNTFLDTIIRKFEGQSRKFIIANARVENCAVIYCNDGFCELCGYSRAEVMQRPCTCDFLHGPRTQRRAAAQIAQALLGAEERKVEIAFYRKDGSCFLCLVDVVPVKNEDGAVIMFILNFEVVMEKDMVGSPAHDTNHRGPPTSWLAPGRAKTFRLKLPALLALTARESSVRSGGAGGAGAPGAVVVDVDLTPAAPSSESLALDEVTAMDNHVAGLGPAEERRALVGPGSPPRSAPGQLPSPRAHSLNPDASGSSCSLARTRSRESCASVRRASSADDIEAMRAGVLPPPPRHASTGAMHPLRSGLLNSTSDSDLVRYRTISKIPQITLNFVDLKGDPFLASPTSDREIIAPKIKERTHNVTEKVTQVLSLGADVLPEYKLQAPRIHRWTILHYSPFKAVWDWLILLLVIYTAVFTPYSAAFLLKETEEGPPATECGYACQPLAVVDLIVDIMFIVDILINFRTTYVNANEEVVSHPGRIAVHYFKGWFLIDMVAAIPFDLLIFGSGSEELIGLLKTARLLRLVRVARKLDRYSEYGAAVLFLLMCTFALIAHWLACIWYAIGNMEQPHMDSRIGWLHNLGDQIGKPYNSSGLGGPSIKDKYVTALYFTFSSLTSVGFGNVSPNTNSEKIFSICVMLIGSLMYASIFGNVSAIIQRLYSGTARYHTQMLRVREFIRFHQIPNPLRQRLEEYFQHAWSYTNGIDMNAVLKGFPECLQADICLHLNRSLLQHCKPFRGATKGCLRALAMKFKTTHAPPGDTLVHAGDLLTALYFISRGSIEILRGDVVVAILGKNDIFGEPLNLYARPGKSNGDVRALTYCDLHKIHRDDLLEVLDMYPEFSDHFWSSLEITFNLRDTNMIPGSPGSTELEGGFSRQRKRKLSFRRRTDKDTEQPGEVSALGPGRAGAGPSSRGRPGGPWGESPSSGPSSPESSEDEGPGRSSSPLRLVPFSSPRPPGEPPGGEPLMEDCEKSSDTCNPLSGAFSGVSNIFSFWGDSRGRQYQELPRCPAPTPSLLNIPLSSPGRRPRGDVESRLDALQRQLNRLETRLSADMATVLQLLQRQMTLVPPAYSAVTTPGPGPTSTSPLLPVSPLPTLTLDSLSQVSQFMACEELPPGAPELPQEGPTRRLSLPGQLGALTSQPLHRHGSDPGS

SMILES	hERG current change (%, negative = inhibition) at 10uM [%]
CC(C)[C@H](CO)N(Cc1cccc(F)c1)c1nc(Nc2cccc(Cl)c2)c2ncn(C(C)C)c2n1	7.4
Cc1cccc(C)c1OC(=O)CN(c1ccc(Cl)cc1)S(C)(=O)=O	16.3
Cc1cc(=O)n2[nH]c(SCc3ccc(Cl)cc3)nc2n1	-7.55
COc1ccc(/C=N/n2c(SC)nnc2-c2ccccc2)cc1C	-27.8
N#Cc1nc(NCC(F)F)nc(Nc2cc(F)cc(F)c2)n1	-3.27
O=C(c1ccc(Cl)cc1)N1CCC2(CC1)OCCO2	13.2
COc1cc(NC(=O)CN2CCCCC2)c(C)cc1[N+](=O)[O-]	3.48
N#Cc1c(NCCO)ccc([N+](=O)[O-])c1NCCO	-2.88
C(#Cc1ccccc1)C[N+]1(CC#Cc2ccccc2)CCCCC1.[Br-]	-55.8
CNC(=O)CCN(Cc1ccco1)S(=O)(=O)c1ccc(OC)c(OC)c1	14.1
Cc1ccc(NC(=O)CCC(=O)NNC(=O)NC23CC4CC(CC(C4)C2)C3)cc1C	7.26
CCOC(=O)N1CCc2c(sc(NC(=O)c3ccc(Cl)s3)c2C(N)=O)C1	5.77
Cc1ccc(-c2nc3cccnc3s2)cc1NS(=O)(=O)c1ccc2c(c1)OCCO2	5.11
COc1cc(/C=N/NC(=O)c2ccc3ccccc3c2)ccc1Oc1ccc([N+](=O)[O-])cn1	-14
COc1ccc(Cn2c(-c3ccc(OC)c(O)c3)nc3ccccc32)cc1O	0.823
CNc1oc(Cc2ccccc2)nc1S(=O)(=O)c1ccccc1	3.18
CC(C)[C@H](NC(=O)OCc1ccccc1)C(=O)OCc1cc(=O)oc2cc(O)ccc12	-46.7
Cc1ccc(NC(=O)C2CCN(S(=O)(=O)c3c(C)noc3/C=C/c3ccco3)CC2)nc1	-21.7
COc1ccc(C/C(O)=C(\C#N)c2nc3ccccc3s2)cc1	11.6
CSCC[C@H](NC(=O)OC(C)(C)C)C(=O)NCC1CCC(C(=O)N[C@@H](Cc2ccccc2)C(=O)O)CC1 (some centres unmarked)	13.4
C[C@@H]1CCC(=O)N(CC[C@H](Sc2ccccc2)c2ccccc2)CC1	-5.35
O=C(Nc1ccc2ccccc2n1)Nc1cccs1	14.5
Cc1ccnc(NC(=O)CCCOc2ccccc2)c1	19
CCOc1ccc(C2C(C(=O)c3ccco3)=C(O)C(=O)N2CCN2CCOCC2)cc1 (centres unmarked)	7.83
COc1ccc(/C=C/C(=O)NCc2cn(C)nc2C)cc1COc1ccc(Br)cc1	7.33
C[N+]1(CCOc2ccc([N+](=O)[O-])cc2)CCOCC1.[I-]	-25
Brc1ccccc1OCCCN1CCCC1.O=C(O)C(=O)O	-12.4

SMILES	hERG current change (%, negative = inhibition) at 10uM [%]
Cc1cccc(C(P(=O)(c2ccccc2)c2ccccc2)P(=O)(c2ccccc2)c2ccccc2)n1	-4.25
Nc1c(Cl)c(Cl)nc(C(=O)OCC(=O)NC2CCCCC2)c1Cl	-58.2
Cc1ccc(C(=O)N2c3ccccc3CC2C)o1 (centres unmarked)	21.7
O=C(NC1CCCCC1)C(c1ccc(Cl)cc1)N(C(=O)c1cnccn1)c1ccc2c(c1)OCO2 (centres unmarked)	-17.1
CCCCNC(=O)c1ccc(CS(=O)(=O)c2ccc(C)cc2)o1	15.1
CCOc1ccc(Br)cc1C1C(C(=O)OC)=C(N)Oc2cc(N(C)C)ccc21 (centres unmarked)	21.4
CCCn1nc2cc(C(=O)NCCc3cccs3)ccc2c1OCC	-12.3
O=C(NCc1ccccn1)C1CCN(Cc2cnn(-c3ccccc3)c2-n2cccc2)CC1	-24.1
COc1ccc(S(=O)(=O)Nc2ccc(OCC(=O)O)cc2)c2ccccc12	24.6
CCc1nc2cccnc2n1-c1ccc(CC(=O)NC(C)CC)cc1 (centres unmarked)	19
CC(c1ccccc1)N(CCC(c1ccccc1)C1CCOC(C)(C)C1)C(=O)c1ccco1 (centres unmarked)	-22.2
O=C(CC(c1ccc(F)cc1)c1ccco1)N1CCOCC1 (centres unmarked)	-18.4
CCc1nccn1CCC(=O)NC1CC(C)(C)Cc2c1cnn2-c1cccc(F)c1 (centres unmarked)	-5.48
COc1ccccc1N(C(=O)c1ccco1)C(C(=O)NC1CCCC1)c1ccc(N2CCOCC2)cc1 (centres unmarked)	-11.4
Cc1cccc(-n2c(O)c(C=Nc3ccc(Br)cn3)c(=O)[nH]c2=O)c1	20.2
CC1CCc2c(sc3nc(CSc4n[nH]c(N)n4)[nH]c(=O)c23)C1 (centres unmarked)	-19.4
O=C1CCC(C(=O)N2CCN(c3ccccc3)CC2)CN1CC1CCCCC1 (centres unmarked)	-27.5
NC(=O)c1ccc(NC(=O)COC(=O)/C=C/c2cn(-c3ccccc3)nc2-c2cccnc2)cc1	0.231
Cc1ccc(/C=C/C(=O)N2CCN(S(=O)(=O)c3cccs3)CC2)o1	-5.96
COc1ccc(S(=O)(=O)NCc2cccnc2)cc1NC(=O)c1ccc(Cl)cc1	-52.2
CC(C)Sc1nc2c(c(=O)[nH]c(=O)n2C)n1Cc1ccccc1	-4.27
Cc1ccc2nc3c(cc(C#N)c(=N)n3Cc3cccnc3)c(=O)n2c1	-60.4
CN(C(=O)COC(=O)c1ccc(Br)c([N+](=O)[O-])c1)c1c(N)n(Cc2ccccc2)c(=O)[nH]c1=O	2.39
C=CCn1c(SCc2ccc([N+](=O)[O-])cc2)nnc1C(C)NC(=O)c1ccccc1 (centres unmarked)	-54.5
CCOC(=O)CSc1nc2c(c(=O)n(C)c(=O)n2C)n1Cc1ccccc1F	-21.4
O=C(CN1CCN(c2ccc(F)cc2)CC1)Nc1ccc(F)c(F)c1	-27.8
